Laboratory results from PubChem BioAssay AID686979 (National Center for Advancing Translational Sciences (NCATS), 2013).
Values joined by “and” are separate entries in the source; they are usually repeats but may differ in a detail not shown here. Equal entries are not always repeated. In all, about 420,000 compounds went through this assay and about 50,000 (12%) were called active. Inconclusive results, whose numbers are uncertain, are shown with a selection of clear calls. Calls come from the whole dose curve; as a rule, active = well fitted inhibition curve with a large enough effect; inconclusive = small, poorly fitted or top-dose-only effect; inactive = flat fitted curve, though single readings scatter. Potencies beside an inconclusive call are fits to weak or partial responses and may not hold up.

Assay: qHTS for Inhibitors of human tyrosyl-DNA phosphodiesterase 1 (TDP1): qHTS in cells in presence of CPT; note: nearly all actives have a fitted effect of over 55% in size
Details: chicken DT40 Tdp1-/-;hTDP1 cells + 20 nM CPT, ATP luminescence, 48 h; activity change, negative = growth inhibition: at 46.2 µM (top of the series) unless noted
Outline: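 Cell growth measured by CellTiter-Glo luminescence after a minimum 48 h, 37 C compound exposure with 20 nM CPT in Tdp1-knockout DT40 cells stably expressing hTDP1, seeded 400/well; qHTS titration format.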
% is set by controls: 0 for no effect and ±100 for the full control effect; potency is the fitted concentration of half-maximal effect; tags give direction and shape of the fitted curve.

Which Potency does the source give for O=C(CCN1CCN(C/C=C/c2ccccc2)CC1)Nc1cccc(F)c1 here?
The Potency was inconclusive: 20.6 µM [inhibitor, single point].

For CCn1c(Oc2ccccc2C)nc2c1c(=O)n(C)c(=O)n2C, which Potency is on record?
The Potency was inconclusive: 18.4 µM [inhibitor, partial curve].

Which Potency does the source give for COc1ccc(CCNC(=O)C/C(C)=N/NC(=O)C2CCCCC2)cc1OC here?
The Potency was “inactive”.

Which Potency does the source give for Nc1ccc2c(c1)CC(=O)c1ccccc1S2 here?
The Potency was “inactive”.

For C[C@H](OC(=O)N1CCN(C(c2ccccc2)c2ccccc2)CC1)[C@@H]1O[C@@]2(C)CCC[C@H]1O2, which Potency is on record?
The Potency was inconclusive: 29.1 µM [inhibitor, single point].

With CCOC(=O)c1sc(/N=C/c2ccc(O)cc2O)cc1C as the compound, how does the Potency read?
Its Potency is “inactive”.

Which Potency does the source give for O=C(Nc1cccc(F)c1)c1ccc(S(=O)(=O)N2CCCC2)cc1 here?
The Potency was inconclusive: 29.1 µM [inhibitor, single point].

With Cc1cccn2c(=O)cc(CSc3nnc(NC(=O)C(C)C)s3)nc12 as the compound, how does the Potency read?
The Potency was “inactive”.

With CC1(C)Cc2cccc(OCC(=O)Nc3ccccc3N3CCOCC3)c2O1 as the compound, how does the Potency read?
Its Potency is inconclusive: 29.1 µM [inhibitor, single point].

With COC(=O)c1ccc(NC(=O)COc2ccccc2C(=O)Nc2ccccc2)cc1 as the compound, how does the Potency read?
Its Potency is inconclusive: 10 µM [inhibitor, partial curve, poor fit].

For COC(=O)C1N[C@@H]([C@@H](NC(=O)COc2ccccc2)C(=O)NCc2ccccc2)SC1(C)C (stereo not given in full), which Potency is on record?
Its Potency is inconclusive: 35.5 µM [inhibitor, single point].

Which Potency does the source give for CCSc1ncc(Cl)c(C(=O)Nc2ccccc2F)n1 here?
The Potency was “inactive”.

Which Potency does the source give for COC(=O)c1cc(S(=O)(=O)N2CCN(Cc3ccccc3)CC2)c[nH]1 here?
The Potency was inconclusive: 11.6 µM [inhibitor, single point].

With Nc1[nH]c2cc([N+](=O)[O-])ccc2c1-c1ccccn1 as the compound, how does the Potency read?
The Potency was active: 14.6 µM.

Which Potency does the source give for COc1ccccc1C(=O)Nc1ccc(OCC(=O)N2CC(C)CC(C)C2)cc1 (stereo not given) here?
Its Potency is inconclusive: 29.1 µM [inhibitor, single point].

For CCCCCNC(=O)C(c1cccc2ccccc12)n1c(=O)c(-c2ccco2)nc2ccccc21 (stereo not given), which Potency is on record?
The Potency was inconclusive: 29.1 µM [inhibitor, single point].

For CCOC(=O)c1c(NC(=O)c2cccs2)sc(C(=O)N(C)C)c1C, which Potency is on record?
The Potency was inconclusive: 23.1 µM [inhibitor, single point].

With CN(C)C(=O)c1cccc(-c2cnc3c(NC=O)cc(-c4ccc(F)cc4)cn23)c1 as the compound, how does the Potency read?
The Potency was active: 6.51 µM.

For OC(CCCC(O)c1ccccc1)c1ccccc1 (stereo not given), which Potency is on record?
The Potency was “inactive”.

Which Potency does the source give for O=C(Cn1ncc2c3ccccc3n(Cc3ccccc3F)c2c1=O)NC1CC1 here?
The Potency was “inactive”.

With COc1ccc(/C=N/NC(=O)c2ccc(CN3C(=O)c4cccc5cccc3c45)cc2)cc1O as the compound, how does the Potency read?
The Potency was inconclusive: 29.1 µM [inhibitor, single point].

For CCC(CC)C(=O)Nc1ccc2nc(SCC(=O)N3CCOCC3)sc2c1, which Potency is on record?
Its Potency is inconclusive: 29.1 µM [inhibitor, single point].

Which Potency does the source give for COc1ccc(C(=O)NCC(c2ccc(N(C)C)cc2)N2CCOCC2)cc1 (stereo not given) here?
Its Potency is active: 7.31 µM.

With Cn1ncc(Br)c1NC(=O)Nc1ccc(Cl)cc1 as the compound, how does the Potency read?
Its Potency is “inactive”.

With CCc1nn(C(C)C(=O)N2CC(C)CC(C)C2)c(=O)c2cc3occc3n12 (stereo not given) as the compound, how does the Potency read?
Its Potency is “inactive”.

Which Potency does the source give for COc1cc2c(cc1OC)C(=O)C(Br)CC2 (stereo not given) here?
The Potency was active: 3.66 µM.

Which Potency does the source give for O=C1CC(c2ccco2)Cc2nc(Nc3ccc(F)cc3)ncc21 (stereo not given) here?
Its Potency is inconclusive: 25.9 µM [inhibitor, single point].

With Cc1ccc(-n2nnc3c(=O)n(CC(=O)NCc4ccccc4)cnc32)cc1 as the compound, how does the Potency read?
Its Potency is inconclusive: 18.4 µM [inhibitor, single point].

With CCOC(=O)c1noc2ncn(Cc3ccc([N+](=O)[O-])cc3)c(=O)c12 as the compound, how does the Potency read?
The Potency was “inactive”.

Which Potency does the source give for O=C(Nc1cc(C(=O)N2CCN(CCO)CC2)c2c(c1)ncn2C1CCCC1)c1ccccc1 here?
Its Potency is “inactive”.

With CN1C(=O)N(CC(=O)N2CCN(c3ncccn3)CC2)C(=O)C12CCCCC2 as the compound, how does the Potency read?
Its Potency is “inactive”.

For CCN1CCN(c2ncnc3scc(-c4ccc(C)c(C)c4)c23)CC1, which Potency is on record?
Its Potency is inconclusive: 23.1 µM [inhibitor, single point].

For COc1ccc(NC(=O)N2CCCC3(CCN(C(=O)c4cnccn4)CC3)C2)cc1, which Potency is on record?
The Potency was “inactive”.

For CCC(C)n1c(SCc2ccc(F)cc2Cl)nc2ccsc2c1=O (stereo not given), which Potency is on record?
The Potency was active: 18.4 µM.

For COC(=O)c1ccncc1C(=O)Nc1ccc(Oc2ncc(C(F)(F)F)cc2Cl)cc1, which Potency is on record?
The Potency was “inactive”.

For CCn1cc(CN2CCCC(C(=O)Nc3cccc(-c4cc5ccccc5[nH]4)c3)C2)c(C)n1 (stereo not given), which Potency is on record?
Its Potency is active: 23.1 µM.

Which Potency does the source give for CCOC(=O)C1CCCN(Cc2ccc(O)c(OC)c2)C1 (stereo not given) here?
The Potency was “inactive”.

With Cc1ccnc(NC(=O)C2CCN(S(=O)(=O)c3ccc(Cl)c(C(F)(F)F)c3)CC2)c1 as the compound, how does the Potency read?
Its Potency is inconclusive: 29.1 µM [inhibitor, single point].

Which Potency does the source give for O=C(c1ccccc1)c1ccccc1C(=O)c1ccccc1 here?
The Potency was “inactive and inconclusive: 29.1 µM [inhibitor, single point]”.

With CCOC(=O)c1cnc2ccc(OC(F)(F)F)cc2c1Nc1ccccc1C(=O)O as the compound, how does the Potency read?
Its Potency is inconclusive: 16.4 µM [inhibitor, single point].

Which Potency does the source give for COc1ccc(OC)c(-c2csc(NC(=O)CSc3ccccc3)n2)c1 here?
The Potency was inconclusive: 16.4 µM [inhibitor, single point].

With C=C(C)CNC(=O)C1CCC(=O)N(CCCc2ccccc2)C1 (stereo not given) as the compound, how does the Potency read?
The Potency was “inactive”.

For Cc1ccc(CNC(=S)Nc2ccc(C)c([N+](=O)[O-])c2)cc1, which Potency is on record?
The Potency was active: 23.1 µM.

For CCOc1ccc(CCNC(=O)CSc2cc(=O)n(CC)c3ccccc23)cc1OCC, which Potency is on record?
Its Potency is inconclusive: 14.6 µM [inhibitor, single point].

Which Potency does the source give for CCOc1ccccc1NC(=O)COC(=O)C12CC3CC(CC(O)(C3)C1)C2 here?
The Potency was “inactive”.

With CCN(CC)S(=O)(=O)c1ccc(Cl)c(C(=O)NCCN2CCOCC2)c1 as the compound, how does the Potency read?
Its Potency is “inactive”.

For CCOc1ccccc1N(CC(=O)Nc1cccnc1)S(C)(=O)=O, which Potency is on record?
Its Potency is “inactive”.

With COc1ccc(OC)c(NS(=O)(=O)c2ccc(SC)cc2)c1 as the compound, how does the Potency read?
Its Potency is active: 9.2 µM.

Which Potency does the source give for Nc1nc(SCc2ccc(F)cc2)ns1 here?
The Potency was “inactive”.

With COc1cccc(/C=C/c2nc(C#N)c(N3CCCCCC3)o2)c1 as the compound, how does the Potency read?
Its Potency is inconclusive: 29.1 µM [inhibitor, single point].

Which Potency does the source give for CC[C@]12c3[nH]c4ccc(Cl)cc4c3CCN1C(=O)[C@@H](CC(=O)NCc1ccc(OC)c(OC)c1)C[C@@H]2C(=O)N1CCN(C(=O)C2CC2)CC1 here?
Its Potency is inconclusive: 16.4 µM [inhibitor, single point].

For O=C1CCN(CCCN2CCC(=O)N(Cc3ccccc3)C2=S)C(=S)N1Cc1ccccc1, which Potency is on record?
Its Potency is inconclusive: 29.1 µM [inhibitor, single point].

Which Potency does the source give for COCc1c(C(=O)Nc2nnc(C3CC3)s2)oc2ccccc12 here?
The Potency was inconclusive: 10.3 µM [inhibitor, partial curve].

For Cn1c(N2CCOCC2)c(/C=N/O)c2ccccc21, which Potency is on record?
Its Potency is inconclusive: 29.1 µM [inhibitor, single point].

For c1ccc(N2CCN(c3ncnc4c3oc3ccccc34)CC2)cc1, which Potency is on record?
Its Potency is inconclusive: 20.6 µM [inhibitor, single point].

With CCn1c(SCC(=O)Nc2nccs2)nnc1-c1cc2cccc(OC)c2o1 as the compound, how does the Potency read?
The Potency was “inactive”.

Which Potency does the source give for Cc1ccc(NC(=O)CCCN2C(=O)COc3ccc(C)cc32)c(Cl)c1 here?
Its Potency is inconclusive: 29.1 µM [inhibitor, single point].

With COc1ccc(C(CNc2ccc(S(C)(=O)=O)cc2[N+](=O)[O-])N(C)C)cc1OC (stereo not given) as the compound, how does the Potency read?
The Potency was “inactive”.

Which Potency does the source give for Cc1ccc(CNc2nc3ccc(C)cc3n3cnnc23)cc1 here?
The Potency was “inactive”.

With O=C(CC1CCS(=O)(=O)C1)Nc1ccc[nH]c1=O (stereo not given) as the compound, how does the Potency read?
Its Potency is “inactive”.

Which Potency does the source give for C[C@H]1CN(CCc2ccccc2)C(=O)[C@@H]1CC(=O)Nc1ccc(Br)cc1 here?
The Potency was “inactive”.

Which Potency does the source give for Cc1cc(S(=O)(=O)Nc2ccc(N(C)C)cc2)c(C)s1 here?
The Potency was inconclusive: 29.1 µM [inhibitor, single point].

Which Potency does the source give for Cc1ccc(C2=NN(C(=O)CN3CCN(C4CCS(=O)(=O)C4)CC3)C(c3ccco3)C2)cc1 (stereo not given) here?
The Potency was inconclusive: 3.66 µM [inhibitor, full curve].

For COc1cccc(CCC(=O)Nc2cccc(S(=O)(=O)N3CCCC3)c2)c1OC, which Potency is on record?
The Potency was inconclusive: 29.1 µM [inhibitor, single point].

Which Potency does the source give for Cc1cc(C)cc(NC(=O)c2ccc(CSc3nnnn3C)cc2)c1 here?
Its Potency is “inactive”.

For COc1ccccc1/C=C1\C=Cc2ccccc21, which Potency is on record?
Its Potency is inconclusive: 15.8 µM [inhibitor, single point].

For CCCC(=O)NCC(c1cccs1)S(=O)(=O)c1ccc(Cl)cc1 (stereo not given), which activity change, negative = growth inhibition is on record?
The activity change, negative = growth inhibition was inconclusive: -31.5% [inhibitor].

Which Potency does the source give for C/C(=N/NC(=O)c1ccccn1)c1ccncc1 here?
Its Potency is “inactive”.

With COc1ccc(-c2cnc(C)o2)cc1S(=O)(=O)Nc1cccc(C(F)(F)F)c1 as the compound, how does the Potency read?
Its Potency is inconclusive: 29.1 µM [inhibitor, single point].

Which Potency does the source give for N#Cc1ccc(C(=O)NC(=S)N2CCN(C=O)CC2)cc1 here?
Its Potency is “inactive”.

Which Potency does the source give for O=C(Nc1cccc(C(F)(F)F)c1)C1CCN(S(=O)(=O)c2cccc3nsnc23)CC1 here?
Its Potency is active: 23.1 µM.

Which Potency does the source give for COc1cc(C2/C(=C(\O)c3ccc4c(c3)OCCO4)C(=O)C(=O)N2Cc2ccco2)cc(OC)c1OC (stereo not given) here?
The Potency was “inactive”.

For CCOC(=O)c1cnn2c(C(F)(F)F)cc(-c3ccc(Br)cc3)nc12, which Potency is on record?
Its Potency is inconclusive: 29.1 µM [inhibitor, single point].

With COc1ccc(-c2nc3ccc(C)cn3c2Cc2cccc(F)c2)cc1OC as the compound, how does the Potency read?
The Potency was inconclusive: 25.9 µM [inhibitor, single point].

For CCN(Cc1cnn(C)c1)C(=O)c1ccc(OC2CCN(S(=O)(=O)N(C)C)CC2)cc1, which Potency is on record?
Its Potency is “inactive”.
